Literature values as cited in article PMC11956011, “An Amazing 30-Year Journey around the DABO Family: A Medicinal Chemistry Lesson on a Versatile Class of Non-nucleoside HIV-1 Reverse Transcriptase Inhibitors” (Journal of Medicinal Chemistry, 2025).

System: K103N HIV-1 RT
Conditions: for Fold-resistance K103N RT (ID50): Fig 10, in brackets

For COc1ccc(CCSc2nc(Cc3c(Cl)cccc3Cl)c(C)c(=O)[nH]2)cc1 [compound 77], which “ID50: K103N” value (Fig 9) is on record?
Its value is 3.2 µM.

For CCCSc1nc(C(C)c2c(F)cccc2Cl)c(C)c(=O)[nH]1 (stereo not drawn) [compound 42], which “ID50: K103N” value (Fig 5) is on record?
Its value is 1.5 µM.

For COc1ccc(CSc2nc(O)c(C)c(Cc3c(F)cccc3F)n2)cc1 [compound 79], which “ID50: K103N” value (Fig 9) is on record?
Its value is 3.5 µM.

Which “ID50: K103N” value (Fig 10) does the source give for CCc1c(Cc2c(F)cccc2F)nc(SCC(=O)c2ccccc2)[nH]c1=O [compound 104] here?
Its value is 3.7 µM.

And the “Fold-resistance K103N RT (ID50)” value?
The value was 86.

With Cc1c(C(C)c2c(F)cccc2Cl)nc(SC2CCCC2)[nH]c1=O (stereo not drawn) [compound 43] as the compound, how does the “ID50: K103N” value (Fig 5) read?
Its value is 1.3 µM.

With Cc1c(C(C)c2c(F)cccc2Cl)nc(SC(C)C)[nH]c1=O (stereo not drawn) [compound 41] as the compound, how does the “ID50: K103N” value (Fig 5) read?
The value was 1.4 µM.

For CCc1c(Cc2c(F)cccc2Cl)nc(SCC(=O)c2ccc(F)cc2)[nH]c1=O [compound 103], which “ID50: K103N” value (Fig 10) is on record?
The value was 1.64 µM.

What about the “Fold-resistance K103N RT (ID50)” value of the same compound?
Its value is 50.

Which “ID50: K103N” value (Fig 9) does the source give for COc1ccc(CSc2nc(Cc3c(Cl)cccc3Cl)c(C)c(=O)[nH]2)cc1 [compound 76] here?
Its value is 102 µM.

With COc1ccc(CCCSc2nc(O)c(C)c(Cc3c(Cl)cccc3Cl)n2)cc1 [compound 78] as the compound, how does the “ID50: K103N” value (Fig 9) read?
The value was 0.5 µM.

With COc1ccncc1Sc1nc(Cc2c(Cl)cccc2Cl)c(C)c(=O)[nH]1 [compound 82] as the compound, how does the “ID50: K103N” value (Fig 9) read?
The value was > 400 µM.

What does the source list for CCc1c(Cc2c(Cl)cccc2Cl)nc(SCC(=O)c2ccccc2)[nH]c1=O [compound 101]?
ID50: K103N (Fig 10): 1.88 µM; Fold-resistance K103N RT (ID50): 26

Which “ID50: K103N” value (Fig 9) does the source give for Cc1c(Cc2c(F)cccc2F)nc(Sc2ccc(Cl)cc2)[nH]c1=O [compound 81] here?
Its value is > 400 µM.

For CCCCSc1nc(C(C)c2c(F)cccc2Cl)cc(=O)[nH]1 (stereo not drawn) [compound 39], which “ID50: K103N” value (Fig 5) is on record?
Its value is 2.2 µM.

For Cc1c(Cc2c(F)cccc2F)nc(Sc2ccccc2)[nH]c1=O [compound 80], which “ID50: K103N” value (Fig 9) is on record?
The value was > 400 µM.

With O=c1cc(Cc2ccccc2)nc(NCCCCO)[nH]1 [compound 23, 6-benzyl-N^2-(4-hydroxybutyl)isocytosine] as the compound, how does the Ki (read-out: RT assay, Ki: K103N, Fig 4) read?
Its Ki is 840 µM.

With CC(C)c1c(Cc2c(Cl)cccc2Cl)nc(SCC(=O)c2ccccc2)[nH]c1=O [compound 102] as the compound, how does the “ID50: K103N” value (Fig 10) read?
Its value is 27.7 µM.

And the “Fold-resistance K103N RT (ID50)” value?
The value was 894.

For CC(c1cc(=O)[nH]c(SC2CCCC2)n1)c1c(F)cccc1Cl (stereo not drawn) [compound 40], which “ID50: K103N” value (Fig 5) is on record?
Its value is 1.8 µM.

Where two headings read alike, the source gives them in different places.
